≈ marks a conversion by molar mass, not a printed value.
Assay: Antimicroalgal activity, summary over the four phytoplankton species tested
Conditions: read-out: IC50 against the phytoplankton species tested

`C/C=C/CC[C@@H](O)[C@@H](O)C/C=C/[C@@H](O)[C@H](C)O` [Compound 7, triharzianin B] and `C/C=C/CCC(O)C(O)C/C=C/C(O)C(C)O` (stereo not shown) [Compound 4, (4E,11E)-trideca-4,11-diene-2,3,7,8-tetraol] cannot be ordered by IC50: at least 30 µg/mL for the first, at least 30 µg/mL for the second.

`C/C=C/CCC(O)C(O)C/C=C/CO` (stereo not shown) [Compound 6, (2E,9E)-undeca-2,9-dien-1,5,6-triol] and `C/C=C/CCC(O)C(O)C/C=C/CC(C)O` (stereo not shown) [Compound 5, (4E,11E)-trideca-4,11-dien-2,7,8-triol] cannot be ordered by IC50: at least 30 µg/mL for the first, at least 30 µg/mL for the second.

`C/C=C/CCC(O)C(O)/C=C/C=C/C(O)CO` (stereo not shown) [Compound 2, (3E,5E,11E)-trideca-3,5,11-trien-1,2,7,8-tetraol] and `C=CCC(O)/C=C/C(O)C(O)CC/C=C/C` (stereo not shown) [Compound 3, (5E,11E)-trideca-1,5,11-trien-4,7,8-triol] cannot be ordered by IC50: at least 30 µg/mL for the first, at least 30 µg/mL for the second.

With `CC=CCCC1(O)OC(C(O)C=CC)CC1O` (stereo not shown) [Compound 1, Trichoderol B] the IC50 was 15 to 28 µg/mL (≈ 61.9 to 116 µM).
